# Source: the supplement of paper PMC3334620
# In all, about 33,000 sequences were measured (“E-score (-0.5 to 0.5)”: median about -0.054, highest 2% from about 0.35 on). The list shows a part of the results.
# Target: T1, Stb5 (UniProt P38699)
# T1 sequence: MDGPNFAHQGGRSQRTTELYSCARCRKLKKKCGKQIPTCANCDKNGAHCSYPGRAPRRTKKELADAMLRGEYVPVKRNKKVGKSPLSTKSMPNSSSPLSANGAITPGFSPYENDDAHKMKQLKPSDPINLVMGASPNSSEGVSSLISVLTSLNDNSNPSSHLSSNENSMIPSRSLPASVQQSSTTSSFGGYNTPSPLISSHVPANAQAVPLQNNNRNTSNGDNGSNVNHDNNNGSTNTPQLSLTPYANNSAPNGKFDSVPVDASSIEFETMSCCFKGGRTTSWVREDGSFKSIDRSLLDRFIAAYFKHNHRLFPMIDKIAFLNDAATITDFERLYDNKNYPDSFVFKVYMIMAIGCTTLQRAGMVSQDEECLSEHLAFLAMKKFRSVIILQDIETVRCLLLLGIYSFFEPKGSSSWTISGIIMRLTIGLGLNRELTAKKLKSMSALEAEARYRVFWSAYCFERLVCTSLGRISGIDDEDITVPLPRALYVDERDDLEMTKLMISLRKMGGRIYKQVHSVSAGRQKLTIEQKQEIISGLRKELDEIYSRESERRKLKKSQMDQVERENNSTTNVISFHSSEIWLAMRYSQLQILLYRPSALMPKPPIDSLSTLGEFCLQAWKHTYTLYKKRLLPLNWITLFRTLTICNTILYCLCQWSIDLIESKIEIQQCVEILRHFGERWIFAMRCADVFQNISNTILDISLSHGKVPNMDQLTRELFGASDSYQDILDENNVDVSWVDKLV
# Assay: PBM E-score (8-mer binding enrichment) (E-score (-0.5 to 0.5)); higher = stronger / more preferred TF binding; most listed sequences are background and not binding sites
# Settings: protein concentration: 200 nM; construct: GST-full length
# Procedure, shortened: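 Masliner-normalised scans of fluorescent anti-GST signal were the basis for scoring. That signal came from GST-tagged yeast transcription factors applied at about 100-200 nM to double-stranded universal all-10-mer Agilent arrays on fresh or once-stripped slides. Each ungapped eight-base word, pooled with its reverse complement, received an E-score from the Universal PBM Analysis Suite.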
row,Sequence,PBM E-score
1,GTCTCCAA,-0.179
2,GTACTAAA,0.127
3,CCTCCTAC,-0.0946
4,CCGACGTA,0.27
5,CCTTCATA,0.00757
6,GCCCCGCC,0.403
7,CGTCGTGA,0.0154
8,ACTAACGA,-0.0378
9,AGGGGACT,-0.0836
10,GAGTTAGC,-0.059
11,ACCTTTGG,0.0325
12,GTGCGCAA,-0.142
13,CGAACGCG,0.149
14,TCCCTCGA,-0.179
15,CGTTTCGC,0.121
16,GCAACTAA,0.144
17,GTCGTCTA,-0.132
18,AGGCCTCA,-0.264
19,CAAGAAGC,-0.0788
20,AGTAAACA,-0.101
21,CAGCATGG,-0.063
22,GAAATACC,0.275
23,GAAGCCCC,0.12
24,AGGAGAGG,-0.261
25,AGGCAGGG,-0.206

row,Sequence,PBM E-score
1,ATAGGAAT,-0.159
2,CAGCGAGC,-0.0812
3,ACGCACCC,-0.126
4,ATCAGAAT,-0.0846
5,CTCTGTAC,-0.233
6,CTACGTTC,-0.206
7,AGCCCGCC,0.359
8,GAACGCTC,-0.233
9,AGCAATCA,-0.123
10,ATATGACC,0.323
11,CTTCATGA,-0.0192
12,ATGTGCCC,0.0009
13,GAGAACGC,-0.113
14,CCTGAGTC,-0.00996
15,ACCATGTA,-0.0728
16,ATCACCGG,0.37
17,ATTCCGTA,-0.00939
18,ATTTGGTG,-0.258
19,CTCGCCAA,-0.177
20,CCGCATAG,0.177
21,GCTTAAAC,-0.0538
22,AGGAGCAG,-0.206
23,CATTACTC,0.0649
24,AAACCATT,-0.181
25,GTAATGAA,-0.0616

row,Sequence,PBM E-score
1,AAGTCCCT,-0.209
2,GGAGAAGA,-0.113
3,TCCCCTCA,-0.249
4,CTTTGCTA,-0.202
5,GCGTTTAC,-0.00093
6,CGCCGTAA,0.333
7,CTGCTCGA,-0.287
8,AAACTCGA,-0.0676
9,CGCGTGCC,0.00499
10,CAGAAGAC,-0.187
11,AGGTCCAG,-0.156
12,TAGCCCCA,0.0327
13,ACCATATG,-0.223
14,ACACATGG,-0.217
15,CCCCCTCC,-0.137
16,CTAAGGAA,-0.196
17,GTGAGGCA,-0.152
18,AGCGTTCG,-0.194
19,ATAGGGCG,0.122
20,ATAAGCCA,-0.107
21,CGCCCACA,0.109
22,ACAGGTGG,-0.058
23,ATGCTACA,-0.336
24,CCTGCACG,-0.0981
25,AAGGTAGC,-0.166

row,Sequence,PBM E-score
1,CGTAAGAA,-0.0783
2,CTATTGAC,-0.129
3,AGAGCTGC,-0.106
4,AGTATAGC,-0.0654
5,GATAATCC,0.258
6,CCGCCGGA,0.309
7,GCTCACGA,-0.197
8,GATTGTCC,0.16
9,ATGCTGTC,-0.0122
10,ATGCGTGA,-0.193
11,AACCAAGC,-0.0977
12,AACCACGC,0.0178
13,ACAGTTAC,-0.0633
14,CGGTCGGA,0.313
15,ACAATATC,-0.00888
16,CTATGGTA,0.0378
17,GACCATAA,-0.0175
18,CGCGTACA,-0.103
19,AGTGCGTC,0.061
20,TAAAGGAA,0.0745
21,CGTAGACC,0.0176
22,TGCATAAA,-0.183
23,AAGACTCT,-0.223
24,GGTTGTCA,-0.0232
25,AGGACCTC,-0.259

row,Sequence,PBM E-score
1,GCATTTGA,0.0447
2,ACTTCGTC,0.00649
3,AGTTCCGA,0.374
4,ACGGGGTA,0.248
5,CCGACTTC,0.274
6,ACTTGCCT,-0.18
7,CACGAAGC,0.0954
8,GATGCGAC,0.0208
9,GTTTCCCA,-0.176
10,AAAATTCC,0.229
11,CGCGGCAC,0.288
12,GTGGCGAA,0.0266
13,ACAGTCGT,-0.063
14,GAACAGCA,-0.0955
15,CCGAGGAC,0.0394
16,GAAACGTA,-0.0447
17,ATGACAAC,-0.0645
18,GCTCAACA,-0.167
19,AAGCGACT,-0.294
20,CTTAATCA,0.0891
21,ACGACATA,-0.313
22,AGCAGCGA,0.0908
23,AACGTTGC,-0.0304
24,GCAAACCC,0.0735
25,GTAAGGGA,-0.0267

row,Sequence,PBM E-score
1,AAACGGGT,0.205
2,CCTATAGG,0.0695
3,CTTGCTGA,-0.196
4,CACCGCCC,0.41
5,CGCGAGTC,-0.00594
6,CGAGTGTA,-0.108
7,ACACGGAT,0.0865
8,CTAGGACA,-0.135
9,ACAATACT,-0.0818
10,AAGCTTCA,-0.233
11,GAAACATA,-0.0451
12,AGGATGTC,-0.0421
13,CTGGCGGA,0.119
14,CGATGACA,0.0876
15,CTAGCCCA,-0.109
16,ATCAGCTA,-0.203
17,AGGACCTG,-0.165
18,CGCTCACA,0.0488
19,AGTTCAGA,-0.328
20,ATAGACGA,-0.0558
21,CCATGAAG,-0.0734
22,GCGCGCCC,-0.0714
23,GCGCACTA,0.0832
24,CTACAACA,-0.124
25,ACTATTGC,0.179

row,Sequence,PBM E-score
1,AAGTGAAA,-0.183
2,CCGTAACG,0.21
3,TCAGGAGA,-0.131
4,GGAGAGCC,-0.0532
5,AACGTGTC,-0.241
6,GAGGTAAA,0.0598
7,GAGGGAAC,0.0254
8,ACGGTATA,0.222
9,ATCCTGCC,-0.131
10,ACGTTGGG,-0.173
11,GCTTACAC,-0.00172
12,CCGCTCAC,0.269
13,GGAACAAC,0.13
14,CCGTTTGA,0.28
15,CCGTCTGA,0.155
16,ACTTAAGA,0.15
17,ACAATAGC,-0.175
18,GTGCGGCA,0.17
19,CGCCTTGC,-0.0758
20,AGGATTTG,-0.124
21,TGACGTAA,-0.159
22,ACCCAGAA,-0.129
